In PubChem BioAssay AID504332 (National Center for Advancing Translational Sciences (NCATS), 2011):
About 31,000 (8.9%) of roughly 350,000 compounds were called active. This list was built around the results that the source calls inconclusive (neither active nor inactive); the mix of calls is not that of the screen. Calls come from the whole dose curve; as a rule, active = well fitted inhibition curve with a large enough effect; inconclusive = small, poorly fitted or top-dose-only effect; inactive = no such curve, though single readings can be large or run the other way. Where the call is inconclusive, the potency comes from a doubtful curve fit.

Biological target: Histone-lysine N-methyltransferase EHMT2 (Homo sapiens) (UniProt Q96KQ7)
Test: qHTS Assay for Inhibitors of Histone Lysine Methyltransferase G9a; note: nearly all actives have a fitted effect of over 75% in size
Settings: G9a H3K9 monomethylation, AlphaScreen, 2 h; activity, negative = inhibition: at 59 µM (top of the series) unless noted
Method in brief: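 Chemiluminescent proximity detection of H3K9 monomethylation, read after 10 min bead incubation in the dark. Reaction: 20 nM G9a, 500 nM biotin-H3K9 peptide, 20 uM SAM cofactor, 2 h, room temperature, following 15 min enzyme-compound preincubation.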
% is set by controls: 0 for no effect and ±100 for the full control effect; potency is the fitted concentration of half-maximal effect; tags give direction and shape of the fitted curve.

Sequence of UniProt Q96KQ7 (Q96KQ7 whole entry, looked up): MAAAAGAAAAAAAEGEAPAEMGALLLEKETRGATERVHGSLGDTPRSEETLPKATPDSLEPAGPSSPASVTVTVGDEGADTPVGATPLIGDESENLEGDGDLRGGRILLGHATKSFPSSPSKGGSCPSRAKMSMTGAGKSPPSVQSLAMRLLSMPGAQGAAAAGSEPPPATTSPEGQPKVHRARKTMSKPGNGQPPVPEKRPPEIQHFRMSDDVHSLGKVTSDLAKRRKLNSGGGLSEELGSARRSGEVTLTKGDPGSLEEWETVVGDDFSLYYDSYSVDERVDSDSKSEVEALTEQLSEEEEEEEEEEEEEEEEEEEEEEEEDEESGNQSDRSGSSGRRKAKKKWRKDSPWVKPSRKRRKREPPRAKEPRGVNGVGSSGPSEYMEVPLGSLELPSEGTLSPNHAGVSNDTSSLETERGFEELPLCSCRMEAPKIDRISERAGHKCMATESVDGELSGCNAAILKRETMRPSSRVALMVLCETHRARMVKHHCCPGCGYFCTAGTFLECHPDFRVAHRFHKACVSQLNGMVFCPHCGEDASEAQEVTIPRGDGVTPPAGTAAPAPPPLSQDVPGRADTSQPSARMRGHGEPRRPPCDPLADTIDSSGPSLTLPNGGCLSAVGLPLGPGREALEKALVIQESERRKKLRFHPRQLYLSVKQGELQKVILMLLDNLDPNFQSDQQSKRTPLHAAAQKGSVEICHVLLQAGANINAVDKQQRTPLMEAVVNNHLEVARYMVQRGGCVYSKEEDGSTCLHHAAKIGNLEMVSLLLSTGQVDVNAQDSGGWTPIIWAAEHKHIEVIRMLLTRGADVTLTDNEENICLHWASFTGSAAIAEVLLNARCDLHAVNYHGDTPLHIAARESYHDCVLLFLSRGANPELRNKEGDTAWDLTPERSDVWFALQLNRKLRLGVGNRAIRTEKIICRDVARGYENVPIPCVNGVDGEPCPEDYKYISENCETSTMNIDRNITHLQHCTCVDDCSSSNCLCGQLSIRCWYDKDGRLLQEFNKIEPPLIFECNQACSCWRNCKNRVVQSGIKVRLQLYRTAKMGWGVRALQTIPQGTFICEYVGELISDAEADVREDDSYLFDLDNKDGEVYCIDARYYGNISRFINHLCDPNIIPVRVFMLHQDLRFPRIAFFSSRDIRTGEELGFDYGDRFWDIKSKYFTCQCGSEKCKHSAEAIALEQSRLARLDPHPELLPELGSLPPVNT

SMILES	Potency	activity, negative = inhibition
CC1CCCCN1CCNC(=O)c1cc2c(-c3ccccc3F)nn(C)c2s1 (stereo not given)	inconclusive: 89.1 µM [inhibitor, single point]	
O=C(CSc1nnc(-c2ccc(NS(=O)(=O)c3ccccc3)cc2)o1)NCC1CCCO1 (stereo not given)		inactive: 4.29% [at 102 µM]
CCOc1cc(CNCc2cccnc2)cc(Br)c1OCC(N)=O		inactive: -14% [at 102 µM]
Cc1cc2oc(C(=O)Nc3sc4c(c3C(=O)NCC3CCCO3)CCC4)cc(=O)c2cc1C (stereo not given)		inactive: -8.07%
O=C(NCc1cccs1)C1CCCN1C(=O)Nc1ccccc1Cl (stereo not given)	inconclusive: 3.16 µM [inhibitor, partial curve, poor fit]	
CCc1ccc(N2C(=O)CC(c3cc(OC)ccc3OC)C3=C2COC3=O)cc1 (stereo not given)		inactive: -2.55%
CCOc1cc(CNC(=O)c2ccc(C)c(NC(=O)c3nsc4ccccc34)c2)ccc1OC		inactive: -28.6%
O=C(Cn1ccc(=O)[nH]c1=O)Nc1ccc(C(=O)O)c(O)c1	inconclusive: 89.1 µM [inhibitor, single point]	
Cc1ccc(NC(=S)N(Cc2cccc(Br)c2)CC2CCC(C(=O)O)CC2)cc1Cl (stereo not given)	inconclusive: 50.1 µM [inhibitor, partial curve, poor fit]	
c1ccc(-c2cc(-c3ccccc3)[nH]n2)cc1		inactive: 26.9% [at 102 µM]
CN1CC(=O)N(CC(=O)N2N=C(c3ccc(Cl)cc3)CC2c2ccco2)C1=O (stereo not given)	inconclusive: 6.31 µM [inhibitor, partial curve, poor fit]	
COc1ccc(CN(C)C(=O)C2CCN(C(=O)Nc3ccccc3)CC2)cc1		inactive: 11.9% [at 102 µM]
CCOC(=O)c1c(NC(=O)CN2CCCCC2)sc2c1CCC(C=O)=C2Cl	inconclusive: 50.1 µM [inhibitor, partial curve, poor fit]	
CCc1ccc(/C=C/C(=O)c2ccc(S(=O)(=O)N(C)C)cc2)cc1	inconclusive: 50.1 µM [inhibitor, partial curve]	
COC(=O)C(CC(C)C)NC(=O)c1cccs1 (stereo not given)		inactive: 6.75% [at 0.501 µM]
CC(C)(C)n1nnnc1C(c1ccccc1)N1CCc2ccccc2C1 (stereo not given)		inconclusive: -80% [inhibitor]
O=C1CC(N2CCOCC2)C(=O)N1c1ccc2c(c1)OCO2 (stereo not given)	inconclusive: 25.1 µM [inhibitor, single point]	
CCCCCn1c(=N)c(S(=O)(=O)c2ccccc2)cc2c(=O)n3ccccc3nc21		inactive: -4.97%
CN1CCN(S(=O)(=O)c2ccc(N(C)Cc3ccc(OC(F)F)cc3)c([N+](=O)[O-])c2)CC1		inactive: 8.89% [at 0.501 µM]
CCCCCCOc1ccc(/C(C)=N/NC2=NCCN2)cc1[N+](=O)[O-]	inconclusive: 50.1 µM [inhibitor, partial curve]	
Cn1c(=O)c(C(=O)NNC(=O)c2ccccc2Br)c(O)c2ccccc21		inactive: 9.83%
Cc1nc2cc(NC(=O)CS(=O)(=O)c3ccccc3)ccc2s1	inconclusive: 39.8 µM [inhibitor, partial curve, poor fit]	
O=[N+]([O-])c1ccc(SCCc2ccccn2)cc1	active: 12.6 µM	
O=C(CSc1n[nH]c(=O)n1Cc1ccccc1)Nc1ccc(F)c(F)c1F	active: 39.8 µM	

SMILES	Potency	activity, negative = inhibition
COc1ccc(S(=O)(=O)NNC(=O)c2ccccc2-n2cccc2)cc1	inconclusive: 63.1 µM [inhibitor, partial curve, poor fit]	
CCN(CC)CCCNC(=O)CCC(=O)Nc1ccc2nc(N3CCC(C)CC3)cc(C)c2c1	inconclusive: 89.1 µM [inhibitor, partial curve, poor fit]	
COc1ccc(CNC(=O)CN(c2ccccc2OC)S(=O)(=O)c2ccc(C)cc2)cc1	inconclusive: 3.55 µM [inhibitor, partial curve, poor fit]	
CCOc1cc(/C=C(\C#N)C(=O)Nc2ccc(S(N)(=O)=O)cc2)ccc1OCCN1CCOCC1		inactive: 14.9% [at 102 µM]
CN(C)CC(=O)N1CCc2ccccc2C1	inconclusive: 3.16 µM [inhibitor, full curve, poor fit]	
Cc1cccc(-n2ccnc2SCC(=O)Nc2nccs2)c1	inconclusive: 50.1 µM [inhibitor, partial curve, poor fit]	
COc1ccc(N2CCn3c2nc2c3c(=O)n(CCc3ccccc3)c(=O)n2C)c(OC)c1	inconclusive: 50.1 µM [inhibitor, partial curve, poor fit]	
CCCCNc1nc2c(c(=O)[nH]c(=O)n2C)n1CCOc1ccccc1	inconclusive: 89.1 µM [inhibitor, single point]	
Cc1cc(C)cc(OCC(=O)N(Cc2ccco2)c2c(N)n(Cc3ccccc3)c(=O)[nH]c2=O)c1	inconclusive: 39.8 µM [inhibitor, single point]	
O=[N+]([O-])c1cccc(COc2ncnc3cc([N+](=O)[O-])ccc23)c1	inconclusive: 31.6 µM [inhibitor, full curve]	
Cc1ccc(S(=O)(=O)N(C#N)c2nc(C)cc(C)n2)cc1	active: 44.7 µM	
CN(C)C(=O)CSc1nc(-c2ccccc2)c(-c2ccccc2)o1	active: 12.6 µM	
CCCOc1cccc(C(=O)Nc2ccc(-c3nc4ccccc4s3)c(Cl)c2)c1	inconclusive: 35.5 µM [inhibitor, single point]	
COc1ccc(-c2ccc3c(c2)S(=O)(=O)c2cccc(C(=O)NC4CC4)c2C3=O)cc1OC		inactive: -36.5% [at 0.501 µM]
Cc1n[nH]c(=O)nc1NCC1CCCO1 (stereo not given)		inconclusive: -124% [inhibitor]
CCCCN(NC(C)=O)c1nc(Cl)nc(NC(C)C)n1	active: 50.1 µM	
COc1ccc(-c2[nH]ncc2/C=N\NS(=O)(=O)c2ccccc2)cc1OC	active: 50.1 µM	
Cc1ccc(-c2csc(-c3c[nH]c4ccccc34)n2)c(C)c1		inactive: 6.81% [at 2.33 µM]
COc1ccc(C(=O)/C=C/c2ccc(OC)c(CN3CCOCC3)c2)cc1	inconclusive: 28.2 µM [inhibitor, single point]	
COc1cccc(-c2noc(C3CCCN(S(=O)(=O)c4cccc(Cl)c4C)C3)n2)c1 (stereo not given)	inconclusive: 1 µM [inhibitor, partial curve, poor fit]	
COc1ccc(CNC[C@@H](CCCCN(C)Cc2ccc(OC)cc2)N2C[C@H](c3ccccc3)N(CCc3ccc(Cl)c(Cl)c3)C(=O)C2=O)cc1		inconclusive: -64.4% [inhibitor]
CCCC(O)c1nc2ccccc2n1CCCCOc1ccc(OC)cc1 (stereo not given)		inactive: -25.3%
Cc1cc(C)c2c(N)c(-c3nc4ccccc4[nH]3)sc2n1		inactive: -5.82% [at 2.33 µM]
O=C(O)Cn1ccnc1	inconclusive: 89.1 µM [inhibitor, single point]	

SMILES	Potency	activity, negative = inhibition
O=C(CCn1ccnc1)Nc1nc2ccccc2[nH]1		inactive: -1.65% [at 102 µM]
CCOC(=O)CNc1nc(Cl)nc(Nc2ccc(OC)cc2OC)n1	inconclusive: 89.1 µM [inhibitor, single point]	
O=c1c2c([nH]n1-c1ccccc1)CCCC2	inconclusive: 44.7 µM [inhibitor, partial curve, poor fit]	
CCN1C(=O)CC(n2c(C)nc3ccccc32)C1=O (stereo not given)	inconclusive: 79.4 µM [inhibitor, single point]	
CCCC(=O)Nc1nnc(S(=O)(=O)N(C)Cc2ccco2)s1	inconclusive: 89.1 µM [inhibitor, single point]	
Cc1nc(NC(=O)C(C)Oc2cccc(Cl)c2)sc1C(=O)N(C)C (stereo not given)	inconclusive: 89.1 µM [inhibitor, single point]	
Cc1ccc(CSc2ccc(-c3ccco3)nn2)cc1	active: 17.8 µM	
COc1ccc(CNC(=O)C2CCN(c3nc4ccc(C)cc4[nH]3)CC2)cc1		inactive: 0.081%
Cc1ccccc1OCC(O)Cn1c(NCc2ccco2)nc2c1c(=O)n(C)c(=O)n2C (stereo not given)	inconclusive: 50.1 µM [inhibitor, partial curve, poor fit]	
O=C(N/N=C/c1ccco1)c1ccc(C(=O)N/N=C/c2ccco2)o1	inconclusive: 89.1 µM [inhibitor, single point]	
CC(Oc1ccccc1Cl)C(=O)Nc1ccc(S(=O)(=O)Nc2nccs2)cc1 (stereo not given)	active: 56.2 µM	
CC(=O)c1cccc(Nc2nc(-c3cccc([N+](=O)[O-])c3)cs2)c1	inconclusive: 20 µM [inhibitor, partial curve, poor fit]	
CN(C)CCCN=Cc1c(O)n(Cc2ccc3c(c2)OCO3)c(=O)c2ccccc12	inconclusive: 39.8 µM [inhibitor, partial curve]	
COc1cc(NCCCC(C)N)c2ncccc2c1 (stereo not given)	inconclusive: 3.55 µM [inhibitor, single point]	
O=C1C(Nc2ccccc2)=C(N2CCCCC2)C(=O)c2ccccc21		inactive: 17.7% [at 0.501 µM]
O=C(Nc1ccc(N2CCN(CCOc3ccc(Cl)cc3)CC2)c(C(=O)O)c1)c1ccc(F)cc1		inactive: -5.42%
CC1=CS(=O)(=O)CC1Sc1ncn[nH]1 (stereo not given)	inconclusive: 39.8 µM [inhibitor, single point]	
Cc1ccc(O)c(Cn2nnc3ccccc32)c1		inactive: -3.15% [at 2.33 µM]
COC(=O)C(NC(=O)c1ccco1)(Nc1ccc(Br)cn1)C(F)(F)F (stereo not given)	inconclusive: 89.1 µM [inhibitor, single point]	
Cc1ccc2c(c1)NC(=O)C(CC(=O)NCCCN1CCN(c3cc(Cl)ccc3C)CC1)O2 (stereo not given)	active: 44.7 µM	
Cc1cc([N+](=O)[O-])ccc1NC(=S)NC(=O)Cc1ccccc1	inconclusive: 11.2 µM [inhibitor, partial curve]	
CC(=O)n1nc(-c2ccccc2)nc1NCc1ccc(F)cc1		inactive: -11.8% [at 2.33 µM]
